# Experimental data reported in PubChem BioAssay AID2451 (National Center for Advancing Translational Sciences (NCATS), 2010).
# Where “and” joins values, the source holds several entries; their conditions need not be identical. Equal entries are not always repeated. Out of some 290,000 compounds screened, about 2,100 (0.72%) were called active. The shares of active, inactive and inconclusive entries below differ from those in the screen. Calls follow the shape of the dose curve; as a rule, active = well fitted inhibition curve with a large enough effect; inconclusive = small, poorly fitted or top-dose-only effect, or effect the other way; inactive = flat fitted curve, though single readings scatter. Potencies beside an inconclusive call are fits to weak or partial responses and may not hold up.
# Target: Fructose-bisphosphate aldolase (Giardia intestinalis (strain ATCC 50803 / WB clone C6)) (UniProt A8B2U2)
# Assay: qHTS Assay for Inhibitors of Fructose-1,6-bisphosphate Aldolase from Giardia Lamblia; also: nearly all actives have a fitted effect of over 55% in size
# Conditions: purified Giardia FBPA; activity, negative = inhibition: at 59.6 µM (top of the series) unless noted
# Outline: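 Giardia FBPA (40 nM reagent) was preincubated 10 min at RT with compound (up to 57.5 uM final), then substrate plus GAPDH/TPI/NAD/arsenate coupling system with diaphorase/resazurin was added; resorufin fluorescence (525/598 nm) was read after 20 min.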
# % is scaled to controls: 0 for no effect and ±100 for the full control effect; potency is read from the fitted curve at half-maximal effect; tags tell the direction and shape of the fitted curve.
# UniProt A8B2U2, sequence (A8B2U2 whole entry, looked up): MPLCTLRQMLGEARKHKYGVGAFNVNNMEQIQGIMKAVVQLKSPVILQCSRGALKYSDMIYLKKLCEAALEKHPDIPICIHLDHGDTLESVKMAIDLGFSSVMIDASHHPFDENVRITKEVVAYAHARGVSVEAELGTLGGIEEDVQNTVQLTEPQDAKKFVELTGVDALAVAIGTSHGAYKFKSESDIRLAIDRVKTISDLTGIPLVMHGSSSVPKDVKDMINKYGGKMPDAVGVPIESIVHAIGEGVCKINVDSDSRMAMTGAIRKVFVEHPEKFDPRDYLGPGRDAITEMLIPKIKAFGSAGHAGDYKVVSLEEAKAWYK
Structure (SMILES),Potency,"activity, negative = inhibition"
CC(=O)Oc1ccc(-c2ccc(C(=O)NCCc3ccc(S(N)(=O)=O)cc3)cc2)cc1,inactive,
Cc1ccc(N(C(=O)c2csnn2)C(C(=O)NC2CCCCC2)c2ccccn2)cc1C (stereo not given),inactive,
O=C(CNC(=O)c1ccc(Cl)cc1)Nc1ccc(S(=O)(=O)Nc2ncccn2)cc1,"inconclusive: 22.3 µM [inhibitor, single point]",
CCc1ccc(Nc2nc(C)cc(C)n2)cc1,"inconclusive: 28.2 µM [inhibitor, partial curve]",
CCCc1nc2ccccc2c(C(=O)OCC(=O)NCc2ccc3c(c2)OCO3)c1CC,inactive,
CCc1noc(C)c1C(=O)Nc1nc(-c2ccc(Cl)cc2Cl)cs1,inactive,
Cc1noc(C)c1C(=O)OCC(=O)c1cc(C)n(Cc2ccccc2Cl)c1C,inactive,
CCN1CCc2c(sc(NC(=O)c3ccc(S(=O)(=O)N4CC(C)OC(C)C4)cc3)c2C(N)=O)C1 (stereo not given),"inconclusive: 28.2 µM [inhibitor, single point]",
COC(=O)c1c(C(=O)OC)c2ccncn2c1Cl,"inconclusive: 31.5 µM [activator, single point]",
COc1cc(OC)cc(C(=O)Nc2ccc3nc4n(c(=O)c3c2)CCCC4)c1,inactive,
O=C(CCNC(=O)c1ccc(Cl)cc1)Nc1c(F)c(F)cc(F)c1F,inactive,
COc1cc(NC(=O)c2ccccc2F)ccc1NC(=O)c1cc2ccccc2o1,inactive,
CCCNC(=S)N1CCN(Cc2ccc3c(c2)OCO3)CC1,"inconclusive: 19.9 µM [inhibitor, partial curve]",
CCn1cc(SCC(=O)N2CCOCC2)c2ccccc21,inactive,
CCOc1cc(C(c2c(C)[nH][nH]c2=O)c2c(C)[nH][nH]c2=O)ccc1O,"inconclusive: 19.9 µM [inhibitor, partial curve]",
COc1cccc(C2C(C#N)=C(N)OC(C(C)(C)C)=C2C#N)c1 (stereo not given),"inconclusive: 12.6 µM [inhibitor, partial curve]",
CCC(=O)Oc1ccc(C(=O)Nc2ccc([N+](=O)[O-])cc2)cc1,inactive,
O=C(CN1CCC(Cc2ccccc2)CC1)N1CCc2ccccc2C1,"inconclusive: 19.9 µM [inhibitor, partial curve]",
CC(C)(C)n1ncc2c(=O)n(CC(=O)Nc3ccccc3)cnc21,inactive,
COc1cc(CNc2ccc(CNc3ncn[nH]3)cc2)ccc1OCc1ccccc1,"inconclusive: 3.15 µM [inhibitor, full curve, poor fit]",
CCC(C)n1c(NC(=O)c2ccccc2)c(C#N)c2nc3ccccc3nc21 (stereo not given),"inconclusive: 2.23 µM [inhibitor, full curve]",
Cn1cc(C2=C(c3cn(CCCSC(=N)N)c4ccccc34)C(=O)NC2=O)c2ccccc21,"inconclusive: 17.7 µM [inhibitor, single point]",
CC(=O)c1cccc(OCC(=O)N2CCN(c3ccc(C(F)(F)F)cn3)CC2)c1,inactive,
O=C(N/N=C/C=C/c1ccccc1[N+](=O)[O-])c1ccncc1,"inconclusive: 17.7 µM [inhibitor, single point]",
COc1ccc(OC2C=CC(C#Cc3ccc(F)cc3F)OC2CO)cc1 (stereo not given),,inactive: -5.14% [at 12.9 µM] and inactive: -1.78% [at 12.9 µM]

Structure (SMILES),Potency,"activity, negative = inhibition"
CC(NC(=O)c1ccc(C23CC4CC(CC(C4)C2)C3)cc1)C(=O)O (stereo not given),inactive,
Cn1nnc(NC(=S)NC(=O)c2cccc3c(Br)cccc23)n1,"inconclusive: 3.16 µM [inhibitor, partial curve, poor fit]",
Cc1sc(Cc2nc(O)cs2)nc1-c1ccccc1,"inconclusive: 22.3 µM [inhibitor, single point]",
CC(C)Cn1nnnc1S(=O)(=O)CCc1ccccc1,inactive,
COC(=O)CCC(=O)OC1(C)C(=O)C2=CN(CCc3ccccn3)C(c3ccc(OC)cc3)=CC2=C(Br)C1=O (stereo not given),"inconclusive: 1.26 µM [inhibitor, full curve]",
Cc1ccc(/C=C2\SC(=S)N(c3cccnc3)C2=O)o1,"inconclusive: 19.9 µM [inhibitor, partial curve]",
CCC(=O)Nc1ccc2c(c1)Cc1cc(NC(=O)CC)ccc1-2,inactive,
OC(COc1ccccc1Br)CN1CCNCC1 (stereo not given),"inconclusive: 35.5 µM [inhibitor, partial curve]",
Cc1cc2c(NCCc3ccccc3)ncnc2s1,"inconclusive: 28.2 µM [inhibitor, partial curve]",
COc1cccc(CN2CCN(c3ccc(F)cc3)C2=O)c1,inactive,
Cc1ccc(C)c(OCCCNCc2ccccc2)c1,"inconclusive: 22.4 µM [inhibitor, partial curve]",
CS(=O)(=O)c1ncc(Cl)c(C(=O)Nc2ccc(OC(F)F)cc2)n1,inactive,
C[n+]1ccccc1/C=C/c1ccc(C#N)cc1,"inconclusive: 17.8 µM [inhibitor, partial curve]",
COCc1cc(=O)[nH]c(=S)[nH]1,active: 4.46 µM,
CN(C)/C=N/c1ncc(C(=O)c2ccccc2)s1,inactive,
CCCOc1cccc(C2C(C(=O)c3ccc(C)o3)=C(O)C(=O)N2c2nc(C)c(C(C)=O)s2)c1 (stereo not given),"inconclusive: 31.6 µM [inhibitor, partial curve]",
Cn1c(=O)n(-c2ccccc2)c(=O)c2c3c(sc21)COC(C)(C)C3,inactive,
COc1ccc(OC(=O)CCCN2C(=O)c3ccccc3C2=O)cc1,inactive,
CCn1cc(C(=O)N(C)c2ccccc2F)c2cc(OC)c(OC)cc2c1=O,inactive,
COc1ccc(C(=O)NC(=S)Nc2cccnc2)cc1OC,"inconclusive: 15.8 µM [inhibitor, single point]",
Cc1nc2sc(C(c3ccco3)N3CCN(c4ccccc4)CC3)c(O)n2n1 (stereo not given),inactive,
COc1ccc(OC)c2c1C(=O)C(Cl)=C(Cl)C2=O,active: 1.26 µM,
Cc1cccc(NC(=O)c2nc[nH]c2C(=O)N[C@@H](Cc2ccccc2)C(=O)OC(C)(C)C)c1,"inconclusive: 50 µM [inhibitor, single point]",
CCCN(C(=O)c1ccco1)c1nnc(-c2ccccc2C)s1,inactive,
CCNC(=S)SCCOc1ccc(C)cc1,inactive,

Structure (SMILES),Potency,"activity, negative = inhibition"
C[C@H](O)CO[C@H]1[C@H]2O[C@H]3[C@H](O)[C@@H](O)[C@@H](O[C@H]4[C@H](O)[C@@H](O)[C@@H](O[C@H]5[C@H](O)[C@@H](O)[C@@H](O[C@H]6[C@H](O)[C@@H](OC[C@H](C)O)[C@@H](O[C@H]7[C@H](O)[C@@H](OC[C@H](C)O)[C@@H](O[C@H]8[C@H](O)[C@@H](O)[C@@H](O[C@@H]([C@@H]1O)[C@@H](CO)O2)O[C@@H]8CO)O[C@@H]7CO)O[C@@H]6CO)O[C@@H]5CO)O[C@@H]4CO)O[C@@H]3CO,inactive,
CCOc1cc(/C=N/N=C(\N)c2nonc2N)cc(Br)c1OCc1cccc2ccccc12,inactive,
CC(=O)OC1C2CCCC1C(N1CCCC1)CC2 (stereo not given),inactive,
CCCCOC1CC(c2ccc(OCc3ccc(OC)cc3)c(OC)c2)N(C)O1 (stereo not given),inactive,
CCOC(=O)CCCc1ccc(/C(C)=N/NC(N)=S)cc1,active: 6.29 µM,
CCc1ccc(Nc2cnn(-c3nc4ccccc4s3)c(=O)c2Cl)cc1,inactive,
COc1cccc2c1CCC(NC(C)=O)C2=O (stereo not given),"inconclusive: 15.8 µM [inhibitor, partial curve]",
Cc1ccc(S(=O)(=O)NC2=C(N3CCN(Cc4ccccc4)CC3)C(=O)c3ccccc3C2=O)cc1,"inconclusive: 5.61 µM [inhibitor, partial curve]",
C=C1C(=O)[C@@]23[C@H](O)C[C@@H]4C(C)(C)CC[C@H](O)[C@@]4(C)[C@@H]2CC[C@@H]1[C@H]3O,inactive,
FC(F)(F)c1nc2ncc(Cl)cc2[nH]1,"inconclusive: 15.8 µM [inhibitor, partial curve]",
Cc1ccc(NC(=O)c2ccc(N3CCOCC3)c([N+](=O)[O-])c2)cc1S(=O)(=O)N1CCOCC1,inactive,
Cc1ccc(-c2nc(CS(=O)(=O)CC(=O)NC3CCCCCC3)c(C)o2)cc1,inactive,
O=C(NCCc1ccccn1)/C(=C/c1ccco1)NC(=O)c1ccccc1,"inconclusive: 22.3 µM [inhibitor, partial curve]",
COc1ccc(OC)c(-c2c3cc(O)c(=O)cc-3oc3cc(O)c(O)cc23)c1,"inconclusive: 3.54 µM [inhibitor, full curve]",
O=C1/C(=N\S(=O)(=O)c2cccs2)C([n+]2cccc(Cc3ccccc3)c2)=C([O-])c2ccccc21,"inconclusive: 0.223 µM [inhibitor, full curve]",
O=C(O)c1cc(-c2ccc(/C=N/NC(=S)Nc3ccccc3)o2)ccc1Cl,inactive,
COc1cccc(NC(=O)CN2CCSc3ccccc32)c1,inactive,
COc1cccc(-c2[nH]nc3c2C(c2ccoc2)C(C#N)=C(N)O3)c1 (stereo not given),"inconclusive: 17.7 µM [inhibitor, partial curve]",
COc1ccc(Br)cc1CNc1ccc(O)cc1,active: 15.8 µM,
CC(=O)c1ccc(Nc2cc(C)nc3ccc(C)cc23)cc1,inactive,
O=C(Nc1cccc2[nH]ncc12)NS(=O)(=O)c1ccccc1,"inconclusive: 8.91 µM [inhibitor, partial curve]",
CC(C)C(C(=O)NCC1CCCO1)N(Cc1ccccc1)C(=O)CNS(=O)(=O)c1ccccc1 (stereo not given),,inconclusive: 29.4% [activator]
CN1CCN(CCC(=O)Nc2ccc3c(c2)OCO3)CC1,inactive,
S=C1SCN(Cc2cccnc2)CN1Cc1cccnc1,"inconclusive: 44.6 µM [inhibitor, single point]",
O=C(Nc1ccc(N2CCN(C(=O)c3ccco3)CC2)cc1)c1cccc(F)c1,inactive,
